Assay results as given in the supplement of paper PMC4967469.
The IC50 comes from the fitted curve, where viability falls to half of the control; a limit (>, <) means that the fit lies beyond the doses tested. AUC is the area under the same curve over the 256-fold range up to the top dose, as a fraction; it is 1 without any effect and falls as sensitivity rises. For some assays here: Where the top dose is marked as inferred, it was calculated from the reported fits. For some assays here: Drugs with an entry number were screened twice under separate entries, and the two screens often disagree.

How the values were obtained:
Assay in all cases: Viability of human cancer cell lines after 72 h of drug (GDSC screen)
Zibotentan = compound: COc1nc(C)cnc1NS(=O)(=O)c1cccnc1-c1ccc(-c2nnco2)cc1 [Zibotentan]; conditions: top dose 20 µM; top dose inferred
Protocol: (§1)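 Human cancer cell lines in 384-well plates, medium with 10% serum, drug for 72 h over a 256-fold dose range (nine 2-fold or five 4-fold steps up to the top dose). Adherent lines were fixed and stained with the nucleic acid dye Syto60, suspension lines read with resazurin; signal relative to control wells, capped at 0 and 100%. One two-parameter sigmoid per drug and line, fitted in a mixed model over all curves with the slope shared within a line.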

MPS-1-IN-1 = compound: COc1cc(N2CCC(O)CC2)ccc1Nc1cc(Nc2ccccc2S(=O)(=O)C(C)C)c2cc[nH]c2n1 [MPS-1-IN-1]; conditions: top dose 20 µM; top dose inferred
Protocol: as §1

(5Z)-7-Oxozeaenol = compound: COc1cc(O)c2c(c1)/C=C/C[C@H](O)[C@H](O)C(=O)/C=C\C[C@H](C)OC2=O [(5Z)-7-Oxozeaenol]; conditions: top dose 10 µM; top dose inferred
Protocol: as §1

GSK269962A = compound: CCn1c(-c2nonc2N)nc2cnc(Oc3cccc(NC(=O)c4ccc(OCCN5CCOCC5)cc4)c3)cc21 [GSK269962A]; conditions: top dose inferred
Protocol: as §1

KU-55933 = compound: O=c1cc(-c2cccc3c2Sc2ccccc2S3)oc(N2CCOCC2)c1 [KU-55933]; conditions: top dose 10 µM
Protocol: as §1

CP466722 = compound: COc1cc2ncnc(-n3nc(-c4ccccn4)nc3N)c2cc1OC [CP466722]; conditions: top dose 16 µM; top dose inferred
Protocol: as §1

QL-X-138 = compound: C=CC(=O)Nc1cc(-n2c(=O)ccc3cnc4ccc(-c5cn[nH]c5)cc4c32)ccc1C [QL-X-138]; conditions: top dose 10.24 µM; top dose inferred
Protocol: as §1

ABT-869 = compound: Cc1ccc(F)c(NC(=O)Nc2ccc(-c3cccc4[nH]nc(N)c34)cc2)c1 [ABT-869]; conditions: top dose 1.024 µM; top dose inferred
Protocol: as §1

CHIR-99021 = compound: Cc1cnc(-c2cnc(NCCNc3ccc(C#N)cn3)nc2-c2ccc(Cl)cc2Cl)[nH]1 [CHIR-99021]
Protocol: as §1

Thapsigargin = compound: C/C=C(/C)C(=O)O[C@H]1C(C)=C2[C@H]([C@@H]1OC(=O)CCCCCCC)[C@@](C)(OC(C)=O)C[C@H](OC(=O)CCC)[C@@]1(O)[C@H]2OC(=O)[C@@]1(C)O [Thapsigargin]; conditions: top dose 0.512 µM; top dose inferred
Protocol: as §1

ABT-888 = compound: C[C@]1(c2nc3c(C(N)=O)cccc3[nH]2)CCCN1 [ABT-888]; conditions: top dose 5 µM; top dose inferred
Protocol: as §1

[1] = top dose 5 µM, screen: GDSC drug entry 1192
[2] = top dose 2.56 µM, screen: GDSC drug entry 154
[3] = top dose 10 µM, screen: GDSC drug entry 1241, top dose inferred
[4] = top dose 2.5 µM, screen: GDSC drug entry 127

Cell Line | AUC (Zibotentan) | IC50 (Zibotentan) | AUC (MPS-1-IN-1) | IC50 (MPS-1-IN-1) | AUC ((5Z)-7-Oxozeaenol) | IC50 ((5Z)-7-Oxozeaenol) | AUC (GSK269962A; [1]) | IC50 (GSK269962A; [1]) | AUC (KU-55933) | IC50 (KU-55933) | AUC (CP466722) | IC50 (CP466722) | AUC (QL-X-138) | IC50 (QL-X-138) | AUC (ABT-869) | IC50 (ABT-869) | AUC (CHIR-99021; [2]) | IC50 (CHIR-99021; [2]) | AUC (CHIR-99021; [3]) | IC50 (CHIR-99021; [3]) | AUC (Thapsigargin) | IC50 (Thapsigargin) | AUC (ABT-888) | IC50 (ABT-888) | AUC (GSK269962A; [4]) | IC50 (GSK269962A; [4])
COLO-205 (large intestine, suspension) | 0.984 | > 20 µM | 0.803 | 9.72 µM | 0.809 | 5.13 µM | 0.94 | > 5 µM | 0.981 | > 10 µM | 0.787 | 6.84 µM | 0.799 | 4.83 µM | 0.984 | > 1.02 µM | 0.939 | > 2.56 µM | 0.985 | > 10 µM | 0.192 | 0.00394 µM | 0.973 | > 5 µM |  | 
COLO-678 (large intestine, semi-adherent) | 0.982 | > 20 µM | 0.98 | > 20 µM | 0.733 | 3.58 µM | 0.983 | > 5 µM | 0.984 | > 10 µM | 0.981 | > 16 µM | 0.884 | > 10.2 µM | 0.98 | > 1.02 µM | 0.985 | > 2.56 µM | 0.963 | > 10 µM | 0.761 | 0.233 µM | 0.98 | > 5 µM |  | 
Ca-Ski (cervix, adherent) | 0.973 | > 20 µM | 0.861 | > 20 µM | 0.693 | 2.34 µM | 0.698 | 1.21 µM | 0.958 | > 10 µM | 0.746 | 5.6 µM | 0.44 | 0.429 µM | 0.917 | > 1.02 µM | 0.981 | > 2.56 µM | 0.922 | > 10 µM | 0.449 | 0.0228 µM | 0.97 | > 5 µM |  | 
D-392MG (glioma, adherent) | 0.976 | > 20 µM | 0.951 | > 20 µM | 0.556 | 0.937 µM | 0.948 | > 5 µM | 0.979 | > 10 µM | 0.814 | 13 µM | 0.667 | 2.23 µM | 0.933 | > 1.02 µM | 0.868 | > 2.56 µM | 0.936 | > 10 µM | 0.817 | 0.431 µM | 0.965 | > 5 µM | 0.702 | 0.719 µM
DU-145 (prostate, adherent) | 0.984 | > 20 µM | 0.958 | > 20 µM | 0.718 | 2.81 µM | 0.819 | 3.28 µM | 0.757 | 3.83 µM | 0.95 | > 16 µM | 0.859 | 10.2 µM | 0.983 | > 1.02 µM | 0.972 | > 2.56 µM | 0.976 | > 10 µM | 0.343 | 0.0111 µM | 0.847 | 4.35 µM |  | 
